Assay results from PubChem BioAssay AID1347417 (National Center for Advancing Translational Sciences (NCATS), 2020).
Screen size: about 120,000 compounds; about 5,300 (4.4%) were called active. The shares of active, inactive and inconclusive entries below differ from those in the screen. Calls come from the whole dose curve; as a rule, active = well fitted inhibition curve with a large enough effect; inconclusive = small, poorly fitted or top-dose-only effect; inactive = no such curve, though single readings can be large or run the other way. Where the call is inconclusive, the potency comes from a doubtful curve fit.

Experiment: qHTS Primary assay for Inhibitors of Plasmodium falciparum Dd2 growth in vitro; note: nearly all actives have a fitted effect of over 65% in size
Settings: P. falciparum Dd2 growth, SYBR Green, 72 h; series mostly up to 28.9 µM
In short: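 Readout: SYBR Green fluorescence, 485 nm excitation, 535 nm emission, after ~16 h lysis at 37C. Before that, Dd2-infected red cells (2.5% hematocrit) grew 72 h with compound, 29 uM top final concentration.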
Potency is the fitted concentration of half-maximal effect; tags give direction and shape of the fitted curve.

Row | Compound | Potency
1 | CC(C)Cc1cc(C(=O)N2CCc3[nH]nc(-c4ccccc4F)c3C2)n(C)n1 | inconclusive: 17.8 µM [inhibitor, single point]
2 | COc1ncccc1Nc1cnc2ccc(N(C)Cc3ccc(F)cc3)nn12 | inconclusive: 2.24 µM [inhibitor, partial curve, poor fit]
3 | Cc1cc(C(=O)N2CC[C@H]3C(=O)NCCCCCCN(Cc4ccncc4)[C@@H]3C2)nn1C | inconclusive: 2.51 µM [inhibitor, full curve, poor fit]
4 | CC(C)CNC(=O)C(C)(C)Oc1nn(CC2CC2)c2ccc(CN3CCCC3)cc12 | inconclusive: 0.282 µM [inhibitor, full curve, poor fit]
5 | Cc1oc2ncn(CC(C)C)c(=O)c2c1C(=O)NCCCN1CCCCC1C (stereo unspecified) | inconclusive: 10 µM [inhibitor, single point]
6 | O=C(c1cccc(Cl)c1)N1CCN(c2cc(-c3ccc(Cl)cc3)[nH]n2)CC1 | inactive
7 | CC(NCc1cn(CCC(N)=O)c2ccccc12)c1ccccc1-n1cccn1 (stereo unspecified) | inconclusive: 15.8 µM [inhibitor, partial curve, poor fit]
8 | CCN1CCN(C(=O)c2ccc3c(c2)N(Cc2ccc(Cl)cc2)C(=O)c2ccccc2S3=O)CC1 (stereo unspecified) | active: 0.501 µM
9 | CCOc1ccc(NC(=O)c2oc3ccccc3c2NC(=O)Cc2cccs2)cc1 | inconclusive: 17.8 µM [inhibitor, single point]
10 | CCCNC(=O)c1ccc2c(c1)CC(=O)N2Cc1cccc(F)c1 | inconclusive: 2.82 µM [inhibitor, single point]
11 | CS(=O)(=O)N1CCc2ccc(C(=O)NCc3ccc(OC(F)(F)F)cc3)cc21 | inconclusive: 17.8 µM [inhibitor, single point]
12 | Cc1ccc(-c2ccc3nnc(CNC(=O)c4ccccc4)n3n2)cc1C | inactive
13 | O=C(NC(c1ccccc1)c1ccccc1)c1cnc2c(c1)N([S+](=O)([O-])c1cccnc1)CCC2 | inactive
14 | Cc1ccc(-c2cnc([C@@H]3COCCN3C(C)C)[nH]2)cc1 | inconclusive: 31.6 µM [inhibitor, single point]
15 | COc1ccc(C(=O)N2CCC(Oc3ncccc3C(=O)N(C)C)C2)c(OC)c1 (stereo unspecified) | inactive
16 | CCOC(=O)c1cccc(Nc2nc(C(=O)OCC)nc3ccccc23)c1 | active: 7.94 µM
17 | O=C(NC1CCCCC1)N1Cc2[nH]cnc2C[C@H]1c1nc(-c2ccc3c(c2)OCO3)no1 | inconclusive: 1.58 µM [inhibitor, full curve]
18 | COc1cccc(C(=O)NC[C@@H]2CC[C@H]3C[C@@H]2C3(C)C)c1 | active: 11.2 µM
19 | COC(=O)c1c(-c2ccc(Cl)cc2)noc1N1CCN(c2cccc(OC)c2)CC1 | inconclusive: 11.2 µM [inhibitor, single point]
20 | Cc1c(C(=O)NCc2ccc(F)cc2)sc2nc(-c3ccccc3)cn12 | inconclusive: 17.8 µM [inhibitor, single point]
21 | CCOc1ccccc1NC(=O)N1CCC(n2c(C)cnc2-c2cccnc2)CC1 | inactive
22 | CCOc1ccccc1C(=O)NCC(c1ccc(N(C)C)cc1)N1CCc2ccccc21 (stereo unspecified) | inconclusive: 12.6 µM [inhibitor, partial curve]

Row | Compound | Potency
23 | COC(C)(C)C(=O)N[C@H]1CN(Cc2cccc(C#N)c2)C[C@@H]1C(C)C | inactive
24 | Cc1ccc(-n2cc(CN(C)C(C)C(=O)N(C)C)c(-c3cccc(C)c3)n2)cc1 (stereo unspecified) | active: 3.98 µM
25 | COc1cccc(-n2c(SCC(=O)Nc3ccc(F)cc3F)nc3c([nH]c4ccccc43)c2=O)c1 | inconclusive: 6.31 µM [inhibitor, partial curve]
26 | O=C(N[C@@H]1CN(C2CCCCC2)C[C@H]1CO)c1cccnc1 | inactive
27 | COc1cccc(CNC(=O)Cn2ccn3nc(-c4ccc(F)cc4)c(CO)c3c2=O)c1OC | inactive
28 | COC1CN(c2cccc(F)c2)C12CCN(C(=O)c1cnc(C)cn1)CC2 (stereo unspecified) | inconclusive: 10 µM [inhibitor, partial curve]
29 | CC1=C(C(=O)N2CCC(CCC(=O)Nc3ccc4c(c3)OCCO4)CC2)OCCO1 | inconclusive: 10 µM [inhibitor, partial curve, poor fit]
30 | COc1ccc(-c2ccnc(N[C@H]3CO[C@H]4[C@@H]3OC[C@@H]4NC(=O)Nc3ccc(C(C)=O)cc3)n2)cc1 | inconclusive: 17.8 µM [inhibitor, single point]
31 | CC(C)Cn1c(-c2ccc(S(=O)(=O)N3CCCC3)cc2)csc1=Nc1ccccc1 | inconclusive: 14.1 µM [inhibitor, single point]
32 | O=C(COc1ccccc1)N[C@@H]1CN(c2ncccn2)C[C@H]1CO | inactive
33 | CCOc1ccccc1CN1CCC2(CCN(C(=O)C(C)(C)C)CC2)Oc2ccccc21 | inconclusive: 1.58 µM [inhibitor, full curve]
34 | COc1ccc(CCNC(=O)CSc2nc3ccccc3nc2Cc2ccc(Cl)cc2)cc1OC | inconclusive: 10 µM [inhibitor, single point]
35 | CCC1=C(C(=O)OC)C(c2ccccc2F)N2C(CC(=O)NCC3CCCO3)=CSC2=N1 (stereo unspecified) | inconclusive: 3.55 µM [inhibitor, single point]
36 | Cc1ccc(C)c2c(=O)cc(CNC(CCn3cncn3)c3ccccc3)[nH]c12 (stereo unspecified) | inactive
37 | Cc1ccc(-n2c(=O)c3c(cnn3C)n(CC(=O)Nc3cc(C)ccc3C)c2=O)cc1 | inconclusive: 5.62 µM [inhibitor, partial curve, poor fit]
38 | CCN(C(=O)CC1COc2ccc(C(=O)N(C)C)cc2N1C)C1CC1 (stereo unspecified) | inconclusive: 12.6 µM [inhibitor, single point]
39 | Cc1ccc(NC(=O)CN2C(=O)NC3(CCC(C)CC3)C2=O)cc1Cl (stereo unspecified) | inactive
40 | COc1ccc(CNC(=O)C[C@@H]2C[C@H]3O[C@H](CNCc4ccc(F)cc4)[C@@H](O)[C@H]3O2)cc1 | inactive
41 | Cc1ccc(NC(=O)Cn2cc(C(=O)c3cccs3)c3ccccc32)cc1C | inconclusive: 17.8 µM [inhibitor, partial curve, poor fit]
42 | Cc1ccc(C(=O)c2cn(Cc3cccc(F)c3)c3nc(C)ccc3c2=O)cc1 | inconclusive: 17.8 µM [inhibitor, single point]
43 | Cc1ccsc1CN1CCC2(Cc3ccccc3CNC2=O)C1 (stereo unspecified) | inconclusive: 10 µM [inhibitor, single point]
44 | COc1ccc(Nc2nc3c(S(=O)(=O)c4ccccc4)nnn3c3ccc(Cl)cc23)cc1OC | inactive

Row | Compound | Potency
45 | CCOC(=O)c1cccc(NC(=O)c2cc3c(=O)n(Cc4cccnc4)ccc3nc2C)c1 | inconclusive: 20 µM [inhibitor, single point]
46 | CN1CCN(Cc2c(O)ccc3cc(-c4ccccc4)c(=O)oc23)CC1 | active: 10 µM
47 | O=C([C@H]1O[C@H](CCN2CCC(CO)CC2)CC[C@@H]1O)N1CCN(c2ccccc2)CC1 | inactive
48 | Cc1ncsc1CN(C)C1CCc2nn(CC3CC3)c(=O)n2CC1 (stereo unspecified) | inactive
49 | CC(=O)N1CC2(CCCN2Cc2ccc(Cl)cc2)Cc2ccccc21 (stereo unspecified) | inconclusive: 12.6 µM [inhibitor, single point]
50 | COc1ccc(OC)c(-n2cnc3cc(C(=O)NC4CCCC4)ccc32)c1 | inconclusive: 10 µM [inhibitor, single point]
51 | CN1CCOc2c(C(=O)NCCC(N)=O)cc(-c3ccccc3OC(F)(F)F)cc21 | inactive
52 | Cn1cc(-c2ccncc2)cc1C(=O)NC1CCN(Cc2ccccc2)CC1 | active: 5.01 µM
53 | Cc1cccc(CC(=O)N2CCC(c3n[nH]c(=O)n3Cc3ccc(F)cc3)CC2)c1 | inactive
54 | CC1=C[C@@H](CNC(=O)c2ccncc2)[C@H](C(C)C)C[C@H]1CC(=O)N1CCN(C)CC1 | inconclusive: 12.6 µM [inhibitor, single point]
55 | N#Cc1ccc(C(=O)N2CCCN(CCc3ccccc3)c3ccccc32)cc1 | inconclusive: 7.94 µM [inhibitor, partial curve]
56 | CCc1ccccc1S(=O)(=O)N1CCC(n2cnnc2C(C)C)CC1 | inactive
57 | CC(=O)c1ccc(Nc2nc3ccccc3nc2-n2nc(C)cc2C)cc1 | inconclusive: 10 µM [inhibitor, single point]
58 | CC1CCC2(CC1)OCC(C(=O)NCc1ccccc1)N2C(=O)c1ccc(Cl)c(Cl)c1 (stereo unspecified) | active: 8.91 µM
59 | COc1ccc(/C=C\c2onc(C)c2S(=O)(=O)N2CCC(C(=O)Nc3cccc(C)c3C)CC2)cc1 | active: 2.82 µM
60 | CC(=O)Nc1ccc(CNC2(Cc3cc(CN4CCCCC4)on3)COC2)cc1 | inactive
61 | C[C@H]1[C@@H]2[C@@H](O)C([C@H](C)C(=O)NCc3ccc(F)cc3)CC[C@@]2(C)CC[C@@H]1NC(=O)c1cnccn1 (stereo partly specified) | active: 8.91 µM
62 | CN(CC[C@H]1CN(C(=O)c2cccs2)CC[C@H]1CC(=O)O)c1ccccc1 | inconclusive: 10 µM [inhibitor, partial curve]
63 | COc1cccc(CNC(=O)CN2C(=O)N(c3c(C)cccc3C)S(=O)(=O)c3ccccc32)c1OC | inconclusive: 11.2 µM [inhibitor, single point]
64 | COc1ccc(OC)c(NC(=O)C(C)n2nc(C)c3c(C)n(-c4ccccc4)nc3c2=O)c1 (stereo unspecified) | inconclusive: 12.6 µM [inhibitor, partial curve, poor fit]
65 | O=c1[nH]c2ccc(NCc3ccc(-c4ccc(Cl)cc4)o3)cc2[nH]1 | inconclusive: 11.2 µM [inhibitor, partial curve, poor fit]
66 | CCOc1ccccc1Nc1nc(-c2ccc(C)cc2)c(CC(=O)O)s1 | inconclusive: 20 µM [inhibitor, partial curve, poor fit]
